# About 4,000 (4.3%) of roughly 94,000 compounds were called active. Inconclusive means that the source gave no clear call. Such entries were picked first, then a sample of the others. The call rests on the fitted dose curve; in most records, active means well fitted inhibition curve with a large enough effect; inconclusive means small, poorly fitted or top-dose-only effect; inactive means no such curve, though single readings can be large or run the other way. Where the call is inconclusive, the potency comes from a doubtful curve fit.
# Assay: Cytotoxic Profiling in NIH 3T3 Cell Line of Diverse Libraries Using Quantitative High-Throughput Screening; further: nearly all actives have a fitted effect of over 55% in size
# Conditions: NIH 3T3 viability, CellTiter-Glo ATP luminescence, 48-72 h; series mostly up to 96.7 µM; activity change, negative = cytotoxicity: at the top concentration
# Method in brief: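 Cells were seeded at 400 per well, treated with pin-transferred compound, and kept 48 or 72 hr at 37 °C before CellTiter-Glo addition and luminescence imaging of cellular ATP.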
# On the % scale 0 is the no-effect control and ±100 the full control effect; potency means the concentration at half of the fitted maximal effect; tags describe the fitted curve by direction and shape.
Structure (SMILES),Potency,"activity change, negative = cytotoxicity",outcome
COc1cc2c(cc1Oc1cccc(N(C)C)c1)NC(=O)C21CCN(c2cnccn2)CC1,"inconclusive: 50.1 µM [inhibitor, partial curve, poor fit]",,
COc1ccc(-c2cn(C[C@H]3CC4CCN3C[C@@H]4C(=O)N3CCCC3)nn2)cc1 (some centres undefined),"inconclusive: 126 µM [inhibitor, single point]",,
COc1cc2c(cc1Oc1ccccc1)NC(=O)C21CCN(Cc2cccnc2)CC1,"inconclusive: 56.2 µM [inhibitor, partial curve, poor fit]",,
COCCC(=O)N1CCC2(CC1)C(=O)Nc1cc(OCc3ccccc3)c(OC)cc12,"inconclusive: 89.1 µM [inhibitor, partial curve, poor fit]",,
COc1ccc(NC(=O)NC[C@H]2C[C@@H]3CCN2C[C@@H]3c2cc(-c3cccs3)nn2C)cc1,"inconclusive: 89.1 µM [inhibitor, single point]",,
COc1cc2c(cc1OC1CCCC1)NC(=O)C21CCN(Cc2ccccc2O)CC1,active: 22.4 µM,,
COc1ccc(OC)c(S(=O)(=O)NC[C@H]2C[C@@H]3CCN2C[C@@H]3c2cc(-c3ccc(F)cc3)nn2C)c1,"inconclusive: 22.4 µM [inhibitor, full curve, poor fit]",,
Cn1nc(C(=O)N[C@@H]2COCC[C@@H]2OCc2cscn2)c2ccccc21,,inactive: -0.215%,
CCOC(=O)[C@H]1CN(C(=O)CC2CCCC2)[C@]2(C)C(=O)N(CC3CC3)c3ccccc3[C@H]12,"inconclusive: 28.2 µM [inhibitor, partial curve, poor fit]",,
CCOC(=O)[C@@H]1[C@H]2c3ccccc3N(CCOC)C(=O)[C@H]2N(C(=O)CC(C)C)[C@@H]1c1ccccc1,"inconclusive: 70.8 µM [inhibitor, single point]",,
O=C(c1ccc2c(c1)OCO2)N1[C@H]2CC[C@@H]1c1cnc(-c3ccc(F)cc3)nc1C2,"inconclusive: 44.7 µM [inhibitor, partial curve, poor fit]",,
C=C[C@H]1CN2CC[C@H]1C[C@@H]2CNC(=O)Nc1cccc(C#N)c1,,inactive: -4.76% [at 174 µM],
CCCS(=O)(=O)Nc1ccc(=O)n2c1[C@@H]1C[C@@H](CN(S(=O)(=O)c3ccc(OC)cc3)C1)C2,,,inactive
CC1CCN(C[C@H]2CN3CC[C@H]2C[C@@H]3CNS(C)(=O)=O)CC1,,inactive: -12.6% [at 174 µM],
COc1cc2c(cc1Oc1ccccc1)NC(=O)C21CCN(Cc2cccc(O)c2)CC1,active: 22.4 µM,,
COc1cc2c(cc1OC1CCCC1)NC(=O)C21CCN(Cc2ccncc2)CC1,"inconclusive: 79.4 µM [inhibitor, partial curve, poor fit]",,
CCOC(=O)[C@H]1CN(C(=O)COc2ccccc2)[C@]2(C)C(=O)N(CC3CC3)c3ccccc3[C@H]12,"inconclusive: 35.5 µM [inhibitor, single point]",,
CCCN1CC[C@@H](CO)N(C)c2nc(C)ccc2C1,"inconclusive: 141 µM [inhibitor, partial curve, poor fit]",,
Cn1nc(C2CCCC2)cc1[C@H]1CN2CC[C@H]1C[C@@H]2CNS(=O)(=O)c1cccs1,"inconclusive: 112 µM [inhibitor, partial curve, poor fit]",,
O=C(NC[C@H]1C[C@@H]2CCN1C[C@@H]2CN1CCN(c2ccccn2)CC1)Nc1ccccc1,"inconclusive: 112 µM [inhibitor, single point]",,
COc1ccc(-c2cc([C@H]3CN4CC[C@H]3C[C@@H]4CNC(=O)NC3CCCCC3)n(C)n2)cc1,active: 89.1 µM,,
COc1ccc(-c2cc([C@H]3CN4CC[C@H]3C[C@@H]4COC(=O)NC(C)C)n(C)n2)cc1OC,"inconclusive: 56.2 µM [inhibitor, partial curve, poor fit]",,

Structure (SMILES),Potency,"activity change, negative = cytotoxicity",outcome
CCOC(=O)[C@@H]1[C@H]2c3ccccc3N(CCOC)C(=O)[C@H]2N(C(C)=O)[C@@H]1c1ccccc1,"inconclusive: 79.4 µM [inhibitor, single point]",,
O=C1N(c2ccccn2)C[C@H]2CN(Cc3ccccc3)CCN12,,inactive: -12.4% [at 138 µM],
O=C(COc1ccccc1)N1[C@H]2CC[C@@H]1c1cnc(-c3ccccc3)nc1C2,,inactive: -14.8%,
COc1ccc(NC(=O)OC[C@H]2C[C@@H]3CCN2C[C@@H]3c2cc(-c3ccccc3OC)nn2C)cc1,,inactive: -23.9%,
CC(C)(C)c1cn(C[C@H]2CC3CCN2C[C@@H]3C(=O)NCc2ccccc2)nn1 (some centres undefined),"inconclusive: 126 µM [inhibitor, single point]",,
O=C1NC2(CCCN(Cc3ccccn3)C2)COc2ccccc21 (centres undefined),,inactive: -84.7% [at 138 µM],
COCC(=O)NC[C@H]1C[C@@H]2CCN1C[C@@H]2c1cc(-c2ccc(OC)cc2)nn1C,,inactive: -12.7% [at 174 µM],
O=C(c1ccoc1)N1[C@H]2CC[C@@H]1c1cnc(-c3ccccc3)nc1C2,"inconclusive: 10 µM [inhibitor, full curve, poor fit]",,
COc1ccccc1CNC(=O)[C@H]1CN2CCC1C[C@@H]2Cn1cc(C(C)(C)O)nn1 (some centres undefined),,inactive: -18.8% [at 174 µM],
FC(F)(F)CN1C2CCC1CN(c1cccc(Cl)n1)C2,,inactive: -0.118%,
Cc1noc(C)c1-c1cnc2[nH]cc(CC(=O)N3CCN(C)CC3)c2c1,"inconclusive: 35.5 µM [inhibitor, partial curve, poor fit]",,
N#Cc1cncc(N2CC3CCC(C2)N3CC(F)(F)F)c1,,inactive: -5.58% [at 138 µM],
COc1ccc(-c2cc([C@H]3CN4CC[C@H]3C[C@@H]4COC(=O)Nc3ccccc3)n(C)n2)cc1,active: 20 µM,,
CSc1cccc(NC(=O)NC[C@H]2C[C@@H]3CCN2C[C@@H]3CN2CCC(Cc3ccccc3)CC2)c1,active: 25.1 µM,,
CC(C)(O)c1cn(C[C@H]2CC3CCN2C[C@@H]3C(=O)NC2CCCCC2)nn1 (some centres undefined),,,inactive [at 174 µM]
COC[C@H]1CCCN1C[C@H]1CN2CC[C@H]1C[C@@H]2CN,,inactive: 2.89% [at 174 µM],
CC(C)CCN1CCCC2(CC(c3ccccn3)=NO2)C1 (centres undefined),,inactive: -11% [at 138 µM],
C#C[C@H]1CN2CC[C@H]1C[C@@H]2CNC(=O)Nc1ccc(Oc2ccccc2)cc1,active: 39.8 µM,,
CCC(CC)c1cc([C@H]2CN3CC[C@H]2C[C@@H]3CNC(=O)c2cccs2)nc(-c2ccncc2)n1,active: 22.4 µM,,
Cc1ncc2c(n1)C[C@@H]1CC[C@H]2N1,,inactive: -0.781%,
CCCNC(=O)OC[C@H]1C[C@@H]2CCN1C[C@@H]2c1cc(-c2ccccc2OC)nn1C,"inconclusive: 126 µM [inhibitor, single point]",,
O=C(Cc1ccc(Cl)cc1)N1CCCN(CCn2nc3n(c2=O)CCCC3)CC1,,inactive: -7.09%,

Structure (SMILES),Potency,"activity change, negative = cytotoxicity",outcome
O=C(NC[C@H]1C[C@@H]2CCN1C[C@@H]2CN1C[C@@H]2C[C@H](C1)c1cccc(=O)n1C2)Nc1ccccc1,,inactive: 4.51%,
CCNC(=O)NC[C@H]1C[C@@H]2CCN1C[C@@H]2c1cc(-c2ccc(N(C)C)cc2)nc(C)n1,active: 100 µM,,
FC(F)(F)CN1C2CCC1CN(c1nccs1)C2,,inactive: -22.6% [at 138 µM],
COc1cc2c(cc1Oc1ccccc1)NC(=O)C21CCN(C(=O)Cc2ccccc2)CC1,"inconclusive: 70.8 µM [inhibitor, partial curve, poor fit]",,
Cc1ccccc1CC(=O)N1CCC2(CC1)c1nccn1-c1ccccc1CN2C,,inactive: -17.8%,
COc1cc2c(cc1-c1ccc(N3CCN(C)CC3)nc1)NC(=O)C21CCN(C(C)=O)CC1,"inconclusive: 70.8 µM [inhibitor, partial curve, poor fit]",,
COc1cncc(CN2CCC3(CC2)C(=O)Nc2cc(Oc4ccccc4)c(OC)cc23)c1,"inconclusive: 50.1 µM [inhibitor, partial curve, poor fit]",,
COC1CCN(CC2CCCCCN2C(=O)Cc2cccc(F)c2)CC1 (centres undefined),,inactive: -18.7%,
Cn1nc(-c2ccc(F)cc2)cc1[C@H]1CN2CC[C@H]1C[C@@H]2CNC(=O)COc1ccccc1,"inconclusive: 89.1 µM [inhibitor, single point]",,
C=C[C@H]1CN2CC[C@H]1C[C@@H]2CNCc1ccc(OC)cc1,"inconclusive: 100 µM [inhibitor, partial curve]",,
COc1ccc(NC(=O)NC[C@H]2C[C@@H]3CCN2C[C@@H]3c2cc(C3CCCC3)nn2C)cc1,"inconclusive: 89.1 µM [inhibitor, partial curve, poor fit]",,
COc1cc2c(cc1OCC1CCCC1)N(C(=O)CC(C)C)CC21CCN(CC(=O)O)CC1,"inconclusive: 44.7 µM [inhibitor, partial curve, poor fit]",,
O=S(=O)(NC[C@H]1C[C@@H]2CCN1C[C@@H]2CN1CCc2ccccc2C1)c1ccc(Cl)cc1,active: 22.4 µM,,
CCOC(=O)[C@H]1CN(C(=O)OCC)[C@]2(C)C(=O)N(C)c3ccccc3[C@H]12,,inactive: -15.8%,
Cn1nccc1C(=O)N1[C@H]2CC[C@@H]1c1cnc(-c3ccc(F)cc3)nc1C2,"inconclusive: 5.01 µM [inhibitor, full curve, poor fit]",,
COc1ccc(-c2cc([C@H]3CN4CC[C@H]3C[C@@H]4CNC(=O)c3cccs3)nc(C)n2)cc1OC,"inconclusive: 35.5 µM [inhibitor, partial curve, poor fit]",,
O=C(NCc1ccc(F)cc1)[C@H]1CN2CC[C@H]1C[C@@H]2Cn1cc(CC2CCCCC2)nn1,"inconclusive: 89.1 µM [inhibitor, single point]",,
O=C(NC[C@H]1C[C@@H]2CCN1C[C@@H]2CN1CCCC1)c1ccccc1,"inconclusive: 100 µM [inhibitor, partial curve]",,
COc1cc2c(cc1OCc1ccccc1)N(C(=O)[C@@H]1CCCO1)CC21CCN(C)CC1,"inconclusive: 112 µM [inhibitor, single point]",,
COc1nc2ccccc2cc1CN1CCC2(C1)CN(C)C(=O)O2 (centres undefined),,inactive: -28.7%,
